Results taken from article PMC4336329 (PLoS ONE, 2015).
Screen size: about 310,000 compounds; about 2,200 (0.71%) showed an effect of 50% or more. Effects have a minus sign here. This is one part of the list.

Target: human ether-à-go-go-related gene (hERG) potassium channel (human, UniProt Q12809)
Test: primary screen, population patch clamp on CHO cells stably expressing hERG

human ether-à-go-go-related gene (hERG) potassium channel, sequence (Q12809 whole entry, looked up): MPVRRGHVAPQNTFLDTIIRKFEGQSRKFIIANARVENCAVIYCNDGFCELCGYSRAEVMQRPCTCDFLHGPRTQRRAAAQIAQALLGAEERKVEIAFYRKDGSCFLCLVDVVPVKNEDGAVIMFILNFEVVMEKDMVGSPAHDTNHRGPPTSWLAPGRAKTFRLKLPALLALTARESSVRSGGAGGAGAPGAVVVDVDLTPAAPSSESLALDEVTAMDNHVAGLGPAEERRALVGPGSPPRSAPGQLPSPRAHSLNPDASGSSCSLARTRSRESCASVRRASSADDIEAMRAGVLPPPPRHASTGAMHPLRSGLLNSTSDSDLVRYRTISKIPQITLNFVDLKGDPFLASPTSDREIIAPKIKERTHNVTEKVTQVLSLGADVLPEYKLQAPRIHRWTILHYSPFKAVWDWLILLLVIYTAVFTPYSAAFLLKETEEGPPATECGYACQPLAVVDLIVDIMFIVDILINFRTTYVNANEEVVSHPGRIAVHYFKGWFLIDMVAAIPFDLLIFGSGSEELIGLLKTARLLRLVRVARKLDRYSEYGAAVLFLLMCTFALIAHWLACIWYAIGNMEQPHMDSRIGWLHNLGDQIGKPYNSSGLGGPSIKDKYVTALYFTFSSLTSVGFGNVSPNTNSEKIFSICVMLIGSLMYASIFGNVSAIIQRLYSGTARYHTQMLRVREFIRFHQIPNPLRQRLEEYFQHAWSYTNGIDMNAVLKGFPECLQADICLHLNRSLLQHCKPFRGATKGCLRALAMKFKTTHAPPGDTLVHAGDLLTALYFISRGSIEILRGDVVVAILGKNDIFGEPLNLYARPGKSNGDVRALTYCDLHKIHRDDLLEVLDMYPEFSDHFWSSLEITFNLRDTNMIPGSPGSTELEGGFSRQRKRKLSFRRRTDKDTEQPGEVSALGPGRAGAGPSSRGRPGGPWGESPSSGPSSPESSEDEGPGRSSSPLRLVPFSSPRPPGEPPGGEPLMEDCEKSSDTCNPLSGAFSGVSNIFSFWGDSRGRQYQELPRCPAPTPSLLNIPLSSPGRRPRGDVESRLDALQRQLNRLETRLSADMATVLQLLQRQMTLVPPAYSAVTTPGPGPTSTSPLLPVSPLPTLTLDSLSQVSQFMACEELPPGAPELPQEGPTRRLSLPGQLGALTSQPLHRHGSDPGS

| Structure (SMILES) | hERG current change (%, negative = inhibition) at 1uM |
| --- | --- |
| O=C(CCC(=O)Nc1ccccc1)N/N=C/c1ccc2c(c1)OCO2 | 10.1% |
| CC(OC(=O)c1nsc(Cl)c1Cl)C(=O)NCCc1ccccc1 (stereo not drawn) | 0.395% |
| CCOc1cc(/C=N\NC(N)=O)cc(Br)c1OC(C)C | -11.6% |
| O=C(NCCc1ccccn1)c1cc(-c2ccccc2Cl)nc2ccccc12 | 6.1% |
| Cl.c1coc(CN(Cc2cccs2)Cc2nnnn2C2CCCCC2)c1 | 7.27% |
| CN1C/C(=C\c2ccc(N3CCOCC3)cc2)C(=O)/C(=C/c2ccc(N3CCOCC3)cc2)C1 | 3.12% |
| COC(=O)c1sc(S(=O)(=O)Nc2ccc3cn[nH]c3c2)c(C(=O)OC)c1C | 11.8% |
| COc1cccc(NC(=O)c2cccs2)c1 | 4.72% |
| CCC(=O)NC(/C=C/c1ccccc1)c1cc([N+](=O)[O-])c2cccnc2c1O (stereo not drawn) | 10.8% |
| Cc1nccn1CC(O)COc1ccc(Cl)cc1Cl (stereo not drawn) | -17.5% |
| Cn1cc(CN2CCC(C(=O)Nc3ccc(Oc4ccccc4F)cc3)CC2)cn1 | -24.8% |
| CC(SCCc1ccccn1)C(=O)O (stereo not drawn) | -14.5% |
| Cc1ccc(-c2n[nH]c(=O)c3ccccc23)cc1S(=O)(=O)Nc1ccccc1 | 5.85% |
| CCC1(CC)NC(=O)N(CC(=O)OCC(=O)Nc2ccc(C(F)(F)F)cc2)C1=O | 2.71% |
| COc1ccc(-c2cc(-c3ccccc3)nc3ncnn23)cc1 | -7.54% |
| CC(=O)N1CCC(=NNc2nc3ccccc3s2)CC1 | 5.36% |
| O=C(C1CCCCC1)N1CCC(c2nc3c(nnn3Cc3c(F)cccc3Cl)c(=O)[nH]2)CC1 | 4.1% |
| COc1ccc(OC)c(C(=O)NC(CC(N)=O)c2ccc(NCc3ccc(F)c(F)c3)c([N+](=O)[O-])c2)c1 (stereo not drawn) | 15.7% |
| O=C1Nc2ccccc2S/C1=C/Nc1cccc(Cl)c1 | -7.83% |
| O=C(Nc1cccc(N2CCCC2)c1)c1cccs1 | 8.83% |
| Cc1ccc(C(=O)Nc2ccn(Cc3ccc(F)cc3)n2)o1 | -4.51% |
| N#Cc1cccc(C(=O)OCC(=O)N2CCCc3ccccc32)c1 | 14.3% |
| C=CCn1c(C)nnc1SCC(=O)Nc1nc(C)c(C(=O)N(C)C)s1 | 6.49% |

| Structure (SMILES) | hERG current change (%, negative = inhibition) at 1uM |
| --- | --- |
| COc1ccc(NC(=O)C2CCN(S(=O)(=O)c3cccc4cccnc34)CC2)cc1 | 10.3% |
| FC(F)(F)c1cc(-c2ccco2)nc(-n2nc(C(F)(F)F)cc2C2CC2)n1 | 7.08% |
| COc1cc2c(cc1OC)C(c1ccc(Br)cc1)NCC2 (stereo not drawn) | 6.3% |
| COc1ccc([N+](=O)[O-])cc1NC(=O)c1ccco1 | 5.63% |
| CC(=O)c1ccc(N2CCc3ccccc3C2)c([N+](=O)[O-])c1 | 5.96% |
| CCOC(=O)COc1ccc(S(=O)(=O)Nc2ccc3c(c2)OCO3)cc1 | -1.15% |
| Nc1nc(SCC(=O)Nc2ccc(Cl)cn2)n[nH]1 | 16.1% |
| O=c1oc2cccnc2n1CCS(=O)(=O)c1ccc(F)cc1 | 5.75% |
| Cn1cc(CC(=O)N2CCN(c3ccc(Cl)cc3)CC2)c2ccccc21 | -0.545% |
| Cc1nc2ccccn2c1-c1ccnc(=S)[nH]1 | 8.94% |
| CC(=O)c1cccc(NC(=O)N2CCCc3ccccc32)c1 | -10.2% |
| C=CCSC1=NN2CCS(=O)(=O)N=C2S1 | 11.5% |
| O=C(CSc1nncs1)N1c2ccccc2Sc2ccccc21 | 6.52% |
| CSc1nc2cc(Oc3cccc(Cl)c3Cl)c(Cl)cc2[nH]1 | 11.2% |
| CCOc1ccc(C(=O)/C=C/c2cc(OC)c(OC)c(OC)c2)cc1 | 0.469% |
| O=C1c2cccc3cccc(c23)C(=O)N1c1ccccn1 | 4.02% |
| C/C(=N\NC(N)=O)c1c(F)cccc1F | 9.38% |
| CC(NC(=O)c1ccc(F)cc1)c1ccccc1 (stereo not drawn) | 8.16% |
| CCc1ccc(C(=O)COC(=O)c2ccco2)cc1 | 7.44% |
| CCOC(=O)C1CCCN(Cc2ccc(OC)cc2OC)C1 (stereo not drawn) | -13.6% |
| CC(C)Cn1c(SCc2nc3ccccc3c(=O)[nH]2)nc2ccccc2c1=O | 1.85% |
| O=C(NC1CCCc2ccccc21)c1cccc(S(=O)(=O)N2CCOCC2)c1 (stereo not drawn) | 15.2% |
| O=C1CCCN2N=C(SCC(=O)Nc3nccs3)SC2=N1 | 2.63% |

| Structure (SMILES) | hERG current change (%, negative = inhibition) at 1uM |
| --- | --- |
| Cc1nc2c(cc1C#N)C(=O)c1ccccc1-2 | -2.72% |
| COCCn1c(=S)[nH]c2sc3c(c2c1=O)CCC(C)C3 (stereo not drawn) | 15.4% |
| Cc1ccc(Nc2nc(/N=C/N(C)C)n[nH]2)cc1C | 0.539% |
| CN(Cc1ncc[nH]1)C(=O)c1cc(COc2c(F)cccc2F)on1 | 9.97% |
| Cc1occc1-c1nnc(SCC(=O)Nc2ccc(F)cc2)n1Cc1ccccc1 | -27.9% |
| Cc1ccc(CN2C(=O)CCC2C(=O)NCCCN2CCOCC2)cc1 (stereo not drawn) | 17.8% |
| Clc1ccc(Nc2ccc(Cl)nn2)cc1 | 12.7% |
| Cc1cc(C)cc(-n2c(O)c(C=Nc3ccc(N4CCOCC4)cc3)c(=O)[nH]c2=S)c1 | 2.74% |
| CCOCCCNC(=O)CN1C(=O)COc2ccc(S(=O)(=O)N3CCC(C)CC3)cc21 | 8.53% |
| CC1=NCCN1S(=O)(=O)c1cc(Cl)ccc1Cl | 5.43% |
| COc1ccc(CNc2ccc(-c3ccccc3OC)nn2)cc1 | 6.34% |
| CCOC(=O)c1ccccc1NC(=O)/C(C)=C/C(=O)O | 2.59% |
| Cn1c(SCC(=O)N2CCCCCC2)nc2c([nH]c3ccccc32)c1=O | 7.71% |
| COc1cccc(CN(c2ccc3c(c2)CCC3)S(=O)(=O)c2ccc(-n3cnnn3)c(OC)c2)c1 | 18.8% |
| COc1ccccc1-c1cn[nH]c1-c1ccc(OCC(=O)NN)cc1O | 3.23% |
| CC(C)N(C(C)C)S(=O)(=O)c1ccc(Cl)nc1 | 15.1% |
| COc1ccc(CCN(C)Cc2ccc(OC)c(OCc3ccccc3)c2)cc1OC | -77% |
| CC(=O)C[C@H]1c2cc(F)ccc2S(=O)(=O)N1c1ccc(N(C)C)cc1 | 8.54% |
| CCNc1nc(NC(C)C)nc(N(n2cnnc2)S(=O)(=O)c2ccc(C)cc2)n1 | 1.58% |
| COC(=O)/C(C#N)=C/c1c(N2CCN(C)CC2)nc2ccccn2c1=O | 11.2% |
| CCCOC(=O)CCc1n[nH]c(=O)[nH]c1=O | 5.57% |
| CC(C)c1ccc(O)c(NC(=S)NC(=O)CCc2ccccc2)c1 | 11.6% |
| O=C(C(c1ccccc1)c1ccccc1)N1CCN(c2ccccn2)CC1 | 12.2% |

| Structure (SMILES) | hERG current change (%, negative = inhibition) at 1uM |
| --- | --- |
| CC(C)(CNC(=O)c1cccc(NS(=O)(=O)c2ccc(Br)cc2)c1)N1CCOCC1 | 5.76% |
| COc1ccc(CCNC(=O)C(=O)NCC2CCCN2S(=O)(=O)c2cc(C)ccc2C)cc1 (stereo not drawn) | 4.92% |
| COc1cccc(-c2nc(CS(=O)(=O)CC(=O)NCCCN3C(C)CCCC3C)c(C)o2)c1 (stereo not drawn) | 8.41% |
| O=C(CSc1nnc(-c2ccncc2)n1Cc1ccco1)Nc1nccs1 | 4.34% |
| CC(=O)Nc1ccc(Nc2cc(C(C)C)nc3c(-c4ccccc4)c(C)nn23)cc1 | 13.2% |
| O=C(CSc1nnc(CCCN2C(=O)c3cccc4cccc(c34)C2=O)n1-c1ccccc1)N1CCCCC1 | -11.6% |
| O=C(c1cc(-c2cccc(Cl)c2)on1)N1CCN(c2ccccc2)CC1 | 9.17% |
| CC1CCN(S(=O)(=O)c2cccc(-c3cn4cc(Cl)ccc4n3)c2)CC1 | 14.5% |
| COc1ccc(OC)c(N2Cc3ccccc3C2)c1 | 10.7% |
| COc1ccc(C(=O)N2CCCN(C)CC2)c(OC)c1 | 11% |
| O=C(Nc1nc2cc3c(cc2s1)OCCO3)c1ccc([N+](=O)[O-])o1 | 14.3% |
| O=C(N=C1SC2CS(=O)(=O)CC2N1c1ccc(F)cc1F)C1CC1 (stereo not drawn) | 5.2% |
| CCN1C(=O)C(C)S/C1=N\S(=O)(=O)c1ccc(Cl)s1 (stereo not drawn) | 13.3% |
| Cc1cccc(N(CC(=O)NCCSCc2ccccc2)S(C)(=O)=O)c1C | 7.74% |
| COc1cccc(-c2sc3ccc(OC)cc3c2C#CCCO)c1 | 12.5% |
| COc1ccccc1N1CCN(C2CCCN(C(=O)CC(F)(F)F)C2)CC1 (stereo not drawn) | 14.5% |
| COCCCN1C(=O)c2ccc(C(=O)OCC(=O)NCc3ccccc3OC)cc2C1=O | 3.07% |
| O=C(N/N=C/c1c(O)n(CCc2ccccc2)c(=O)[nH]c1=O)c1ccccc1 | 6.33% |
| COc1cccc(NS(=O)(=O)c2ccc(Br)s2)c1 | 11.8% |
| Cc1nc(NC(=O)CSc2nnc(-c3ccc4c(c3)OCO4)o2)c(Cl)cc1Cl | 10.5% |
| NC(=O)C1CCN(C(=O)c2cc3n(n2)C(C(F)(F)F)CC(c2ccco2)N3)CC1 (stereo not drawn) | 15.2% |
